The source of these data is ChEMBL document CHEMBL4888484, “Replenishing the malaria drug discovery pipeline: Screening and hit evaluation of the MMV Hit Generation Library 1 (HGL1) against asexual blood stage Plasmodium falciparum ,using a nano luciferase reporter read-out” (2022).

Among all 150,000 compounds or so, about 540 (0.36%) showed an effect of 50% or more. Some of the results follow.

The subject of this test is Plasmodium falciparum. In words: Primary screen in NF54 nanoGlo assay, in single point, at 2uM, 72h; a lower Z score goes with more inhibition. It counts as functional, Erythrocyte. The settings on record: timepoint 72 hour.
One may read the % Inhibition as the change of the read-out against control, counted positive when it falls. Consider `O=C(NCc1cccc(-n2ccnc2)c1)c1ccc2c(c1)COCO2`, for which the “% Inhibition” value is -9% and the Z score was found to be 1.
In the same order, the values of `Cc1ccc(NC(=O)Nc2c(-c3ccncc3)[nH]c3c(Cl)cccc23)cc1` are -3% and 0.53.
Turning to `CCCn1cnnc1CN(C)CCC(F)(F)F`, the “% Inhibition” value was -1% and the Z score was 0.14.
In the same order, the values of `CN(Cc1ccccn1)C(=O)c1cn(C(c2ccccc2)c2ccccc2)nn1` are -1% and 0.11.
In the same order, the values of `O=C(O)CN(C(=O)COc1ccccc1-c1ccccc1)C1CCOCC1` are 7% and -0.97.
As for `CC(CCC1CCCC1)NC(=O)NCC1CCC(O)C1` (centres undefined), the “% Inhibition” value was -3% and the Z score was found to be 0.37.
In the same order, the values of `Cc1ccc(C(=O)N2CCN(c3oc(C4CC4)nc3C#N)CC2)cn1` are -9% and 1.45.
In the same order, the values of `COC(C)(c1ccccc1)c1nc([C@H]2CCO[C@@H]2C(C)(C)C)no1` (some centres undefined) are 4% and -0.71.
In the same order, the values of `CCC1(CN[C@@H](C)CNS(=O)(=O)C2CC2)CCC1` are -18% and 1.62.
On to `Cc1cc(C)nc(C2CN(c3nc(CC(C)C)ns3)C2)n1`, for which the “% Inhibition” value is -20% and the Z score came out at 2.22.
In the same order, the values of `Cc1ccn(CCNC(=O)CCc2nc3ncccc3[nH]2)n1` are -14% and 1.48.
On to `C[C@H]1CCN(CC(=O)N2CCNC2=O)c2ccccc21`, for which the “% Inhibition” value is -10% and the Z score is 0.89.
On to `CC(C)C[C@H](N)C(=O)N(C)C1CCCCC1`, for which the “% Inhibition” value is given as -1% and the Z score stood at 0.14.
In the same order, the values of `Cn1cccc1CNC(=O)CCC1CCCC1` are -7% and 1.33.
As for `CC(C)(C(N)=O)c1ccc(C(F)(F)F)cc1`, the “% Inhibition” value is on record as -4% and the Z score stood at 0.43.
For the molecule `CCn1cc(-c2ccc(F)cc2)cc1C(=O)N1CCCCC1`, the “% Inhibition” value was -5% and the Z score was 0.81.
In the same order, the values of `COC[C@@](C)(O)CNC(=O)c1ccc(C)cc1F` are 0% and 0.01.
In the same order, the values of `CN(CC(F)(F)C(F)(F)F)C(=O)c1ccccc1-c1cncnc1` are -9% and 1.29.
In the same order, the values of `O=C(CNC1(c2nccs2)CCCC1)NCC(F)(F)F` are -8% and 1.24.
For the molecule `CC(C)(C)OC(=O)N1CC2(CC(=O)NCCN2C(=O)c2ccc[nH]2)C1`, the “% Inhibition” value was -7% and the Z score is 1.02.
In the same order, the values of `CCc1noc(CN2CCOc3c(O)cc(-c4nc(C)cnc4C)cc3C2)n1` are -6% and 0.73.
In the same order, the values of `CC(C)c1noc(CCNS(=O)(=O)c2ccc(Cl)c3ncccc23)n1` are -10% and 1.26.
In the same order, the values of `Cn1cncc1C(=O)N1CCC(CCC(=O)N2CCCC2)CC1` are -1% and 0.18.
In the case of `CCn1ccnc1-c1cccc(NC(=O)c2ccc(=O)n(CC)n2)c1`, the “% Inhibition” value is on record as -10% and the Z score is listed as 1.03.
Consider `Cc1nn(C)cc1C(=O)OCc1ccc(N(C)C)c(F)c1`, for which the “% Inhibition” value was -2% and the Z score came to 0.28.
In the same order, the values of `CCn1cc(NC(=O)NCc2cnn(C)c2)c(C)n1` are 0% and -0.02.
In the same order, the values of `Cc1nc(-c2ccco2)ccc1C(=O)Nc1ncccc1O` are -8% and 0.73.
In the same order, the values of `CCCN(CCOC)C(=O)N[C@@H](C)c1ccc(O)cc1` are 5% and -0.86.
For the molecule `CC(=O)Nc1ccc(-c2nc3c([nH]2)c(C)nn3C2CCCC2)cc1`, the “% Inhibition” value was -11% and the Z score is reported as 1.4.
In the same order, the values of `O=C(CC1(C(=O)O)CCCC1)Nc1cccc(CN2CCCCC2=O)c1` are -4% and 0.76.
In the same order, the values of `O=C(Cn1cc(C(F)(F)F)ccc1=O)Nc1cc(S(=O)(=O)N2CCCCC2)ccc1Cl` are -17% and 3.03.
In the same order, the values of `COC(=O)c1nc(NC(=O)CCc2cc(OC)no2)sc1CC(C)C` are -4% and 0.55.
For `N#CC(c1ccc(Cl)cc1)N1N=C(c2ccccc2)CC1c1ccccc1` (centres undefined), the “% Inhibition” value came out at 32% and the Z score is -0.64.
In the same order, the values of `CN(C)c1ncccc1NS(=O)(=O)CCc1cccc(F)c1` are 2% and -0.22.
In the same order, the values of `CCc1cc(NCc2cncn2C)ccc1C` are -17% and 2.12.
In the same order, the values of `Cc1cccc(C(=O)N2CC[C@H](CO)C[C@@H]2C)c1C` are -11% and 1.13.
Consider `CNS(=O)(=O)C[C@H]1CCCN1C(=O)c1occc1C(C)C`, for which the “% Inhibition” value is recorded as -5% and the Z score was 0.65.
In the same order, the values of `CN1CCOC[C@H]2CCN(C(=O)c3ccc4[nH]ccc4c3)C[C@H]21` are -5% and 0.62.
Consider `O=C(NCc1ccc[nH]1)c1ccc2c(c1)OCO2`, for which the “% Inhibition” value is given as -7% and the Z score came to 0.88.
In the same order, the values of `CC1CN(C(=O)c2ccnc(-c3ncc[nH]3)c2)C(C)CN1C` (centres undefined) are -8% and 1.1.
In the same order, the values of `C[C@@H](C(=O)N(C)Cc1cc[nH]n1)N1CCN(C)CC1` are 2% and -0.27.
In the same order, the values of `C[C@H](N)c1ccc(Nc2ncc3cc(-c4ccncc4)ccc3n2)cc1` are 85% and -9.36.
As to `Cc1ccccc1-c1ccccc1C(=O)N1CC(O)(c2ncnn2C)C1`, the “% Inhibition” value is on record as -5% and the Z score is listed as 0.74.
For the molecule `CCN1CCC[C@@H]1CNC(=O)c1ccc(CN2CCc3ccccc3C2)o1`, the “% Inhibition” value worked out at 2% and the Z score is reported as -0.29.
In the same order, the values of `Cc1c(S(=O)(=O)NC2CC2)c(C)n(C)c1-c1nnc(C2CCC2)o1` are -9% and 1.49.
In the same order, the values of `Cc1cc(S(=O)(=O)N2CCCO2)ccc1F` are -10% and 1.11.
In the same order, the values of `CCc1cnc(N)nc1NCCOc1nonc1C` are -9% and 1.41.
With `C[C@@H](CCc1ccccc1)N1CCn2ccnc2C1`, the “% Inhibition” value is listed as 19% and the Z score is recorded as -2.68.
In the same order, the values of `COCC(=O)NC[C@H]1CC(C(=O)OC(C)(C)C)C[C@H]1O` (some centres undefined) are -6% and 0.88.
In the same order, the values of `O=C(Nc1ccc2ncnc(N3CCCCC3)c2c1)C1CCCCC1` are -12% and 1.18.
In the same order, the values of `Cc1cccc(N2C(=O)c3ccc(C(=O)c4ccc5c(c4)C(=O)N(c4cccc(C)c4)C5=O)cc3C2=O)c1` are -9% and 1.15.
In the case of `c1ccc(Cn2ccnc2-c2nnn[nH]2)cc1` [BENTEMAZOLE], the “% Inhibition” value is listed as 18% and the Z score is given as -2.13.
`CCn1nccc1CN(C)CC(=O)Nc1ccon1`: the “% Inhibition” value came out at 2% and the Z score is given as -0.43.
In the same order, the values of `O=S(=O)(N1CCOCC1)N1CCC[C@H]1c1ccc(Cl)c(Cl)c1` are -15% and 1.94.
In the same order, the values of `Cc1ccc(-n2nc(-c3noc(CCC(=O)Nc4ccc(F)cc4F)n3)c(=O)n(C)c2=O)cc1` are -16% and 2.78.
In the same order, the values of `O=C(NCCOc1ccccc1)NCC1CN2CCCC2CO1` (centres undefined) are -11% and 2.14.
As to `COc1cc2c(cc1OC)CN(C(=O)Cn1c(C)nc(C#N)c1C#N)CC2`, the “% Inhibition” value was -2% and the Z score is 0.18.
In the case of `O=C(Nc1ccc2c(c1)OCO2)N1CCN(S(=O)(=O)c2ccc(Cl)cc2)CC1`, the “% Inhibition” value is reported as -8% and the Z score is reported as 0.98.
In the same order, the values of `Cc1nc(NC(=O)Cn2cc(C(F)(F)F)ccc2=O)sc1C` are 3% and -0.47.
For `O=C(NCN1CCOCC1)c1cccnc1`, the “% Inhibition” value was -14% and the Z score was 1.73.
In the same order, the values of `c1ccc(N2CCN(Cc3cc(CC4(NC5CCOCC5)COC4)no3)CC2)cc1` are 1% and -0.11.
In the same order, the values of `CCCN1C[C@@H](Nc2cc(COC)ncn2)CC1=O` are -7% and 1.18.
In the same order, the values of `CCNC(=O)N(C)Cc1nccn1CC(F)(F)F` are -14% and 1.87.
For the molecule `CC(C)NC(=O)N1CCC2(CC1)C[C@@H](CC(=O)NC1CCC1)CCO2`, the “% Inhibition” value is -9% and the Z score is 1.05.
Consider `CCc1cn[nH]c1[C@H]1CCCN(C(=O)c2cc(C)n3nc(C)cc3n2)C1`, for which the “% Inhibition” value was -11% and the Z score came to 2.03.
In the same order, the values of `CN(C)CCNC(=O)c1cc2cc(S(=O)(=O)N(C)C)ccc2n1Cc1ccncc1` are -14% and 1.93.
In the same order, the values of `c1cncc(OCc2cnc3ccccn23)c1` are 43% and -5.49.
In the same order, the values of `N#Cc1cccc(C#N)c1N1CCC(NCCOc2ccccc2)CC1` are -7% and 0.74.
For the molecule `Cc1nccc(C(C)(C)C)c1/C(N)=N\O`, the “% Inhibition” value is given as -15% and the Z score was 1.88.
In the same order, the values of `CNS(=O)(=O)N1CCC(C(=O)N2CCCc3ccccc3C2)CC1` are -6% and 1.15.
In the same order, the values of `Nc1n[nH]c2ccc(-c3cc(F)cc4cccnc34)cc12` are -14% and 2.7.
Turning to `Fc1ccc(Cl)c(CN2CCC(c3nnc[nH]3)CC2)c1`, the “% Inhibition” value is given as -6% and the Z score was determined as 0.58.
In the same order, the values of `NCCO[C@H]1C[C@@H](O)C12CCN(C(=O)CO)CC2` are -6% and 1.1.
In the same order, the values of `O=C(Nc1ccc(F)c(F)c1)c1ncccn1` are -30% and 2.6.
In the same order, the values of `COc1ccc(NC(=O)c2cnn3c2NC(C(=O)O)=C[C@H]3c2ccccc2F)cc1` are -3% and 0.49.
For the molecule `COc1cccc(C(=O)N2CCN(c3nc(CN4CCN(c5ccccc5OC)CC4)cc(=O)[nH]3)CC2)c1`, the “% Inhibition” value is -19% and the Z score was determined as 1.82.
In the same order, the values of `CCN(CCC(F)(F)F)C(=O)NCc1ccc(C#N)cc1` are -5% and 0.64.
In the same order, the values of `Cc1nc(-c2ccnn2C)c2cnn(C)c2n1` are -15% and 1.62.
For `Cc1ncc(CCN2C(=O)NC3(CCCC3)C2=O)s1`, the “% Inhibition” value is 13% and the Z score is listed as -1.23.
In the same order, the values of `Cn1cnc2c1CCN(C[C@H](O)c1ccccc1Cl)C2` are 0% and 0.04.
Turning to `COc1ccc([C@H](C)NC(=O)C2CCN(S(=O)(=O)c3ccc4c(c3)OCCO4)CC2)cc1F`, the “% Inhibition” value is reported as -11% and the Z score is listed as 1.29.
For `CC(C)(Cc1ccccc1)NC(=O)C(C)(C)C`, the “% Inhibition” value is -7% and the Z score is reported as 1.33.
In the same order, the values of `NC(=NCc1ncccc1F)N1CCCCCC1` are -8% and 1.1.
In the same order, the values of `CN(C)c1ccc(C(=O)N2CC[C@H](c3cccs3)C2)cc1` are -16% and 3.13.
In the same order, the values of `CCOC(=O)C1CCN(C(=O)c2cnc(-c3ccc(OC)cc3)nc2N2CCN(CC)CC2)CC1` are -24% and 2.16.
On to `O=C(c1ccc(Cn2ccccc2=O)o1)N1CCN(S(=O)(=O)c2c(Cl)cccc2Cl)CC1`, for which the “% Inhibition” value is -14% and the Z score amounted to 1.93.
In the same order, the values of `Cn1nc(-c2ccccc2)c(CN(CC2CC2)C[C@@H](O)Cc2ccccc2)c1Oc1ccc(Cl)cc1` are 3% and -0.34.
